Assay results reported in PubChem BioAssay (NCATS).
Some of the results follow. Further columns of the screen follow, without active or inactive calls. For part of these data: Compounds called inactive in the main read-out are mostly missing here. Potencies come from curve fits of mixed quality, noted in brackets.

How the values were obtained:
[1] = qHTS drug screen for cell cycle checkpoint inhibitors in PARPi-resistant BRCA-mutant ovarian cancer cell lines. (AID 1963452); conditions: PEO1/OlaR viability, CellTiter-Glo luminescence, 96 h
Summary of the method: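 PEO1, PEO4 and PEO1/OlaR ovarian cancer cells, 600 per well, exposed 96 h at 37C to a dilution series. Viability read by CellTiter-Glo luminescence, normalized to DMSO and empty wells; activity summarized as Z-AUC.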

[2] = qHTS for identification of novel therapeutic agents for treatment of microphthalmiaassociated transcription factor (MiT) renal cell carcinoma (RCC) (AID 1963991); conditions: CellTiter-Glo, 48 h; for z-score: stronger effect = lower value
Summary of the method: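 Three TFE3-fusion RCC cell lines (UOK109, UOK124, UOK145), 500 cells/well, were exposed to the 1912-compound MIPE 4.0 library for 48 hours at 37 C. Viability was read by CellTiter-Glo luminescence, normalised to DMSO (100%) and empty wells (0%), with 11-concentration curve fits.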

[3] = measured here: PEO1 parental viability
[4] = TFE3-RCC UOK109 viability, measured here: UOK109 Z-AUC
[5] = TFE3-RCC viability, measured here: UOK124 Z-AUC
[6] = TFE3-RCC viability, measured here: UOK124 cell viability
[7] = TFE3-RCC viability, measured here: UOK145 Z-AUC
[8] = TFE3-RCC viability, measured here: UOK145 cell viability
Tags tell the direction and shape of the fitted curve.

SMILES	AC50 [1, 3]	z-score [2, 4]	z-score [2, 5]	AC50 [2, 6]	z-score [2, 7]	AC50 [2, 8]	AC50 ([1]; measured here: PEO4 viability)
O=C(CO)N1CCC(c2[nH]nc(-c3ccc(Cl)cc3)c2-c2ccncn2)CC1	5.49 µM [rising, single point]	-0.237	0.623	5.26 µM [falling, partial curve, poor fit]	-0.0754		
Nc1ccc(C(=O)Nc2cccc(-c3nc(N4CCOCC4)c4oc5ncccc5c4n3)c2)cn1	2.19 µM [falling, partial curve]	-0.544	-0.542	2.64 µM [falling, full curve]	-1.23	1.87 µM [falling, full curve]	
Cc1c(Cn2c(C)nc3c(C(=O)O)cc(N4CCOCC4)cc32)cccc1C(F)(F)F		-1.74	-0.631		-0.788	1.48 µM [falling, full curve]	7.76 µM [falling, partial curve]
O=C(c1cc(Cc2n[nH]c(=O)c3ccccc23)ccc1F)N1CCN(C(=O)C2CC2)CC1	9.77 µM [falling, partial curve]	-0.662	0.664		0.147	20.9 µM [falling, partial curve, poor fit]	
C[C@H](NC(=O)C(=O)Nc1ccccc1C(C)(C)C)C(=O)N[C@@H](CC(=O)O)C(=O)COc1c(F)c(F)cc(F)c1F	27.5 µM [falling, partial curve, poor fit]	0.313	0.693		0.0696	18.7 µM [falling, partial curve]	
Cc1c(C)n(Cc2ccc(-c3ccccc3C(=O)O)cc2)c2ccc(C(=O)N[C@@H](C)c3ccc([N+](=O)[O-])cc3)cc12		-1.43	0.566		-0.185	2.64 µM [falling, partial curve, poor fit]	27.5 µM [falling, partial curve, poor fit]
CCCCOc1c(C(=O)c2c(F)cc(C)cc2F)cnc2n[nH]cc12		-0.285	0.591		0.0569	7.43 µM [falling, full curve]	0.0309 µM [falling, full curve]
CC(C(=O)O)c1ccc2c(c1)CC(=O)c1ccccc1S2 (centres undefined)		-0.793	0.997		0.0504		17.4 µM [rising, partial curve, poor fit]
CN(C)CC(=O)N1CCC(c2ccc(NC(=O)c3ncc(C#N)[nH]3)c(C3=CCCCC3)c2)CC1	19.5 µM [falling, single point]	0.735	-2.74	23.5 µM [falling, single point]	0.634	33.2 µM [falling, single point]	
O=C(Nc1cccc(Br)c1)c1cccc(S(=O)(=O)N2CCCCCC2)c1	6.92 µM [falling, partial curve, poor fit]	0.3	0.159	18.7 µM [falling, partial curve]	-0.465		
CCc1cncnc1N1CCN(Cc2nc3ccc(C(F)(F)F)cc3[nH]2)CC1	15.5 µM [falling, partial curve]	0.326	0.0658	23.5 µM [falling, partial curve]	0.281	14.8 µM [falling, partial curve, poor fit]	
COc1cc2nccc(Oc3ccc(NC(=O)Nc4ccc(F)cc4F)c(F)c3)c2cc1OC		0.38	0.0945	8.33 µM [falling, partial curve]	-1.08		0.776 µM [falling, full curve]
COc1ccc(-c2cc(=O)c3c(O)cc(O)cc3o2)cc1O	27.5 µM [falling, single point]	0.635	0.302		-0.0568	10.5 µM [falling, partial curve]	
CCCCCCCCCCCCCC(=O)N[C@H](CO)[C@H](O)c1ccc([N+](=O)[O-])cc1	24.5 µM [falling, single point]	0.433	0.476	16.6 µM [falling, partial curve]	0.743		
O=C(NCc1ccncc1)C12C[C@H]3C[C@@H](C1)CC(c1ccc(Cl)cc1)(C3)C2		-0.011	-2.57	16.6 µM [falling, partial curve]	0.614	33.2 µM [falling, single point]	17.4 µM [falling, single point]
O=C1CN2Cc3c(ccc(Cl)c3Cl)N=C2N1		0.884	0.65	18.7 µM [falling, partial curve]	0.355	29.6 µM [falling, partial curve, poor fit]	0.0087 µM [rising, full curve, poor fit]
